For this data set the following is noted: for Short-Term Stability, Accuracy (%) / Long-Term Stability, Accuracy (%) / Freeze-Thaw Stability, Accuracy (%): perfusate; for Short-Term Stability, Accuracy (%): ambient temperature 24 h; for Long-Term Stability, Accuracy (%): ambient temperature 5 d.

Molecules are shown by their SMILES. Read-outs that look alike come from different tables or passages of the source.

With `C=C(C)CCCC1(C)OC(=O)C23CC=C4C(CCC5C4(C)CCC(OC4OCC(OC6OC(CO)C(O)C(OC7OC(CO)C(O)C(OC)C7O)C6O)C(O)C4OC4OC(C)C(OC6OCC(O)C(OC7OC(CO)C(O)C(OC)C7O)C6O)C(O)C4O)C5(C)C)C2(C)CC(=O)C13` (stereo not shown) [Holotoxin A1], the “Short-Term Stability, Accuracy (%)” value came out at 92.7% (nominal conc. 100.00 ng/mL), 90.9% (nominal conc. 1000.00 ng/mL) and 93.8% (nominal conc. 5000.00 ng/mL). The “Long-Term Stability, Accuracy (%)” value reads like this: (nominal conc. 100.00 ng/mL) 92.4%; (nominal conc. 1000.00 ng/mL) 91.3%; (nominal conc. 5000.00 ng/mL) 94.8%. The “Freeze-Thaw Stability, Accuracy (%)” value by setting is: (nominal conc. 100.00 ng/mL, frozen at −20 °C 24 h, thawed at ambient temperature) 88.2%; (nominal conc. 1000.00 ng/mL) 92.1%; (nominal conc. 5000.00 ng/mL) 94.3%. Further, the “stability in perfusate under three conditions” value (range over freeze-thaw, short-term, long-term and both compounds) is 88.2%–94.8.

(Values after PMC4926073, “Absorption and Transport of Sea Cucumber Saponins from Apostichopus japonicus” (Marine Drugs, 2016).)
